# Data reported in the supplement of paper PMC4604168 (melanoma cell lines).
# This is one part of the list. Repeats are few or missing, and single values can be far off.
# Test system: MZ2-MEL
# Assay: cell count relative to DMSO control; melanoma cells; higher = more viable cells
# Conditions: library dose: standard library concentration; 72 h
# 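Note: cells treated in 1,536-well plates, then fixed and DAPI-stained, with nuclei counted from automated high-throughput microscope images.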
row,Compound,cell count
1,"NC(=O)c1ccc(N(C(N)=O)c2c(F)cccc2F)nc1-c1ccc(F)cc1F + C[C@@H](Oc1cc(-c2cnn(C3CCNCC3)c2)cnc1N)c1c(Cl)ccc(F)c1Cl [Crizotinib] (first compound 2 µM, partner dose 1 µM)",92.9%
2,"CCCCCCCCc1ccc(CCC(N)(CO)CO)cc1 [fingolimod] + C=C(c1ccc(C(=O)O)cc1)c1cc2c(cc1C)C(C)(C)CCC2(C)C [Bexarotene] (first compound 10 µM, partner dose 10 µM)",2.63%
3,"NC(=O)c1ccc(N(C(N)=O)c2c(F)cccc2F)nc1-c1ccc(F)cc1F + O=C(O)c1ccc(-c2c[nH]c3ncc(-c4ccccc4)cc23)cc1C1CCCC1 [GSK650394] (first compound 2 µM, partner dose 0.8 µM)",96.3%
4,"CCCCCCCCc1ccc(CCC(N)(CO)CO)cc1 [fingolimod] + CS(=O)(=O)CCNCc1ccc(-c2ccc3ncnc(Nc4ccc(OCc5cccc(F)c5)c(Cl)c4)c3c2)o1 [lapatinib] (first compound 10 µM, partner dose 4 µM)",0.857%
5,"CC(C)(C)c1cnc(CSc2cnc(NC(=O)C3CCNCC3)s2)o1 + CN(NC(=O)CC(=O)NN(C)C(=S)c1ccccc1)C(=S)c1ccccc1 [STA4783] (first compound 0.05 µM, partner dose 0.03 µM)",73.2%
6,"CCCCCCCCc1ccc(CCC(N)(CO)CO)cc1 [fingolimod] + COc1ccc(Cl)c(Nc2nc3ccccc3nc2NS(=O)(=O)c2cccc(NC(=O)C(C)(C)N)c2)c1 [XL147] (first compound 10 µM, partner dose 4 µM)",74.6%
